Data reported in EP3138561A1 (priority 2014, dated 2015).

Tested on: Burkholderia cepacia
Conditions: 0.05%, 0.1%, and 0.2% solutions

For CC1CCC(C(C)C)C(OC(=O)C[N+](C)(C)CCCCCCCCCC[N+](C)(C)CC(=O)OC2CC(C)CCC2C(C)C)C1 (centres unmarked) [decamethoxine, 1,10-decamethylene-bis(N,N-dimethyl-menthoxycarbonylmethyl)ammonium dichloride], the adverse side effects was “no adverse side effects were observed” and the tolerance (most patients) was “good tolerance”.
